Measurements taken from PubChem BioAssay (NCI).
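Cells were grown in 96-well plates and exposed to each compound for 48 hours at five concentrations; endpoints were interpolated linearly between bracketing concentrations, or set to the highest concentration if not reached. GI50 marks 50% less growth. TGI denotes the concentration required for complete inhibition of growth.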

Test system: NCI-H322M lung
Assay: NCI tumour cell line growth inhibition, 48 h

Structure (SMILES)	GI50 [µM]	TGI [µM]
O=C1Nc2cc(Cl)ccc2/C1=C\c1ccc(OCc2ccc(Br)cc2F)cc1	3.01	15.8
C/C(=C(/c1ccc(O)cc1)c1ccc(OCCN2CCCCCC2)cc1)c1ccccc1	> 100	> 100
C[C@H](Nc1ncnc2ccc(-c3cnc(Cl)c(NS(C)(=O)=O)c3)cc12)c1ccccc1	1.23	10.8
CNC(=O)c1cc(-n2ccc3cc(NC(=O)Nc4ccc(N5CCN(C)CC5)c(C(F)(F)F)c4)ccc32)ccn1	3.69	7.92
